Reference: the RNAGym collection of RNA variant scans (doi:10.7554/elife.90254)
The source gives no read counts; variants with many changes may rest on few reads.

B1: LINE1-mini (parent)
chain: GGCAGAGCUCAACACAGCGUGGCAAAGUGGCUGUGGCUAGACUGCC

Variants of: B1
Experiment: self-cleavage, relative activity (ratio to wild type); higher = more cleavage; in vitro, sequencing; the parent is a self-cleaving ribozyme

| Variant | self-cleavage |
| --- | --- |
| A4C G21C C23G G40U | 0.13 |
| A4G A11C G19C C23U A24C C46A | 0.01 |
| A4C G7A C10A U34A | 0.06 |
| A4G A14U G19U G30A | 0.06 |
| A4G C10A C42U | 0.04 |
| A4G C8G A16C U20A U34C | 0.02 |
| A4G A26U U32C G33U | 0 |
| A4C U28A G29C C45U | 0.08 |
| A4G C10A C31A G40U C46G | 0.01 |
| A4G C8A A12C U20G | 0.04 |
| A4C G5C U28G G40C | 0.07 |
| A4C G17A C46G | 0.12 |
| A4C G33C A41U | 0.09 |
| A4G A26G U34A C42U | 0.13 |
| A4G A14U U28G G30U | 0.15 |
| A4C G22C G30U | 0.06 |
| A4G C8U C10G C18G G29U G40U C45G | 0.01 |
| A4C G5A A16G | 0.04 |
| A4C G5A A16U | 0.08 |
| A4G A16U G35C G40U U43G | 0.06 |
| A4G C8A C13U G30C U38A A41G | 0.22 |

| Variant | self-cleavage |
| --- | --- |
| A4G A25U G27U C42G | 0.02 |
| A4C G5C G29A U38A | 0.05 |
| A4G A6G C10G A39G | 0.01 |
| A4C C23U G33C | 0.03 |
| A4G C8A U20G | 0.04 |
| A4G A11U G27C | 0.23 |
| A4C G5U C13A | 0.26 |
| A4C C31G G33C | 0.05 |
| A4C G7U C13A G44A | 0.64 |
| A4C G33U G40U | 0.14 |
| A4C G19C G44A | 0.07 |
| A4G C10A G29A G35C C42U | 0.02 |
| A4C G5U A6U C8G A12G | 0.02 |
| A4G A6G G7A U34A G36U C37U | 0.04 |
| A4G A6G C10A G29U G36U A41C | 0 |
| A4C U9C G29A C37A | 0.14 |
| A4G A16G A41U | 0.18 |
| A4G C8A G22U G35A | 0.33 |
| A4G A39U G44C | 0.04 |
| A4C G17A A24C | 0.2 |
| A4G A14C A26U | 0.12 |

| Variant | self-cleavage |
| --- | --- |
| A4C G5U C46A | 0.07 |
| A4G A24U U34C C37G | 0.01 |
| A4C G33A A41C | 0.03 |
| A4C G29A C46A | 0.01 |
| A4C G27A A41U | 0.5 |
| A4G A11U G17U A26G C31A | 0.01 |
| A4C G7U C15U A24C C45A | 0.49 |
| A4C G5U G22U G36C | 0.09 |
| A4C G27A U28G C46U | 0.23 |
| A4C G5C G19A C37U | 0.13 |
| A4G A16U G19A G27C C42G | 0.04 |
| A4C G19U C31A U32C | 0 |
| A4G C8U U28A C31U | 0.25 |
| A4G A14U G17A | 0.1 |
| A4C G22U G44C | 0.06 |
| A4G C10G A11G C15U A25U | 0.02 |
| A4C G7A A24U | 0.65 |
| A4G A12U G29C | 0.03 |
| A4C G17C G30C C31G | 0.02 |
| A4C G7C C10A A14G A16U | 0.03 |
| A4C U9C A12C A16C A25U G35A C37U | 0.01 |

| Variant | self-cleavage |
| --- | --- |
| A4C U9G G17C A24U U28G G33U G40A A41U | 0.01 |
| A4G A24C A26U C31A | 0.03 |
| A4C G7C G29A C37G | 0.04 |
| A4G C8A G21C | 0.14 |
| A4G C10G A14U | 0.01 |
| A4C G21U U34A C37U U43G | 0.03 |
| A4G A16U A25C | 0 |
| A4C G7U G29U U34G | 1.34 |
| A4G C8G A14G G17C U38C | 0.01 |
| A4C G7U A11G A14C C46A | 0.01 |
| A4G C8G A11G | 0 |
| A4C G19U A26C U34A C42G U43G | 0.03 |
| A4C U9G C31A A39U U43G C45U | 0.01 |
| A4G C10A G27C U38G | 0.01 |
| A4G A12G G17A A26G G27U C42A | 0.05 |
| A4G A25C C42U | 0.04 |
| A4C U9A A16C | 0.3 |
| A4G A24G G33A A41C C42U | 0.07 |
| A4G A11U G36C | 0.02 |
| A4G C10A C23A C46A | 0 |
| A4G A6G C10A G30A G36C | 0.03 |
